PubChem BioAssay AID330 (DTP/NCI, 2004)
Where “and” joins values, the source holds several entries; their conditions need not be identical. Identical values can stand only once. The source gives many values for each of these; only a part stands here. Inconclusive results and toxic doses are left out. Rule for the calls: active = survival T/C of 150% or more; inactive = T/C below 125% in these data.

Test system: P388 leukemia ip, CD2F1 mice, survival T/C
Test: NCI In Vivo Anticancer Drug Screen. Data for tumor model P388 Leukemia (intraperitoneal) in CD2F1 (CDF1) mice
Conditions: endpoint: median survival time, higher = longer survival
Method: The antitumor activity of compounds was measured in mice bearing transplantable tumors. Survival or tumor size were measured and the results are expressed as the measurement made in the treated group (T) divided by the measurement made in the vehicle treated control group (C). The tumor model used in this assay is P388 Leukemia (intraperitoneal) in CD2F1 (CDF1) mice

Measured: T/C

O=C1c2c(O)ccc(O)c2C(=O)c2c(NCCNCCO)ccc(NCCNCCO)c21
inactive: dose: 2.0 mg/kg/injection, schedule: Q01DX009 (ip), vehicle: other 95 % of control | dose: 2.16 mg/kg/injection, schedule: Q01DX005 (iv), vehicle: saline 96 % of control
active: dose: 0.25 mg/kg/injection, schedule: Q01DX009 (ip), vehicle: water 194 % of control and 173 % of control and 175 % of control | dose: 0.31 mg/kg/injection, schedule: Q01DX005 (ip), vehicle: water 175 % of control and 178 % of control and 218 % of control | dose: 0.31 mg/kg/injection, schedule: Q01DX009 (ip), vehicle: water 166 % of control | dose: 0.31 mg/kg/injection, schedule: Q04DX003 (ip), vehicle: water 159 % of control | dose: 0.38 mg/kg/injection, schedule: Q04DX003 (ip), vehicle: saline 159 % of control | dose: 0.38 mg/kg/injection, schedule: Q04DX003 (ip), vehicle: water 176 % of control and 208 % of control | dose: 0.4 mg/kg/injection, schedule: Q01DX009 (ip), vehicle: acid diluted with saline 436 % of control | dose: 0.47 mg/kg/injection, schedule: Q04DX003 (ip), vehicle: saline 209 % of control | dose: 0.5 mg/kg/injection, schedule: Q01DX005 (ip), vehicle: saline 401 % of control | dose: 0.5 mg/kg/injection, schedule: Q01DX005 (iv), vehicle: saline 167 % of control | dose: 0.5 mg/kg/injection, schedule: Q01DX009 (ip), vehicle: water 239 % of control and 265 % of control and 155 % of control | dose: 0.5 mg/kg/injection, schedule: Q04DX003 (ip), vehicle: saline 158 % of control | dose: 0.62 mg/kg/injection, schedule: Q01DX005 (ip), vehicle: water 231 % of control and 237 % of control and 250 % of control | dose: 0.62 mg/kg/injection, schedule: Q01DX009 (ip), vehicle: water 229 % of control and 236 % of control | dose: 0.65 mg/kg/injection, schedule: Q01DX009 (ip), vehicle: acid diluted with saline 409 % of control | dose: 0.65 mg/kg/injection, schedule: Q04DX003 (ip), vehicle: saline 221 % of control | dose: 0.75 mg/kg/injection, schedule: Q04DX002 (ip), vehicle: distilled water + Tween-80 = 203 % of control | dose: 0.75 mg/kg/injection, schedule: Q04DX002 (ip), vehicle: saline 199 % of control | dose: 0.75 mg/kg/injection, schedule: Q04DX003 (ip), vehicle: saline 168 % of control and 196 % of control and 186 % of control | dose: 0.75 mg/kg/injection, schedule: Q04DX003 (ip), vehicle: water 186 % of control and 200 % of control | dose: 0.78 mg/kg/injection, schedule: Q01DX005 (ip), vehicle: saline 364 % of control | dose: 0.78 mg/kg/injection, schedule: Q01DX005 (iv), vehicle: saline 203 % of control | dose: 0.78 mg/kg/injection, schedule: Q04DX003 (ip), vehicle: saline 185 % of control | dose: 0.8 mg/kg/injection, schedule: Q01DX009 (ip), vehicle: acid diluted with saline 436 % of control | dose: 0.8 mg/kg/injection, schedule: Q04DX003 (ip), vehicle: saline 225 % of control | dose: 0.86 mg/kg/injection, schedule: Q04DX002 (ip), vehicle: water 169 % of control and 191 % of control | dose: 1.0 mg/kg/injection, schedule: Q01DX005 (ip), vehicle: saline 401 % of control | dose: 1.0 mg/kg/injection, schedule: Q01DX005 (iv), vehicle: saline 169 % of control | dose: 1.0 mg/kg/injection, schedule: Q01DX009 (ip), vehicle: other 450 % of control | dose: 1.0 mg/kg/injection, schedule: Q01DX009 (ip), vehicle: water 206 % of control and 265 % of control and 163 % of control | dose: 1.0 mg/kg/injection, schedule: Q04DX003 (ip), vehicle: saline 172 % of control and 181 % of control | dose: 1.08 mg/kg/injection, schedule: Q04DX003 (ip), vehicle: saline 221 % of control | dose: 1.25 mg/kg/injection, schedule: Q01DX005 (ip), vehicle: water 185 % of control and 250 % of control and 291 % of control | dose: 1.25 mg/kg/injection, schedule: Q01DX009 (ip), vehicle: water 263 % of control and 312 % of control | dose: 1.3 mg/kg/injection, schedule: Q01DX005 (ip), vehicle: saline 560 % of control | dose: 1.3 mg/kg/injection, schedule: Q04DX002 (ip), vehicle: water 215 % of control and 290 % of control | dose: 1.3 mg/kg/injection, schedule: Q04DX003 (ip), vehicle: saline 175 % of control and 189 % of control | dose: 1.3 mg/kg/injection, schedule: Q04DX003 (iv), vehicle: saline 203 % of control | dose: 1.44 mg/kg/injection, schedule: Q04DX002 (ip), vehicle: water 191 % of control and 205 % of control | dose: 1.5 mg/kg/injection, schedule: Q04DX002 (ip), vehicle: distilled water + Tween-80 = 250 % of control | dose: 1.5 mg/kg/injection, schedule: Q04DX002 (ip), vehicle: saline 241 % of control | dose: 1.5 mg/kg/injection, schedule: Q04DX003 (ip), vehicle: saline 192 % of control and 241 % of control and 222 % of control | dose: 1.5 mg/kg/injection, schedule: Q04DX003 (ip), vehicle: water 254 % of control and 260 % of control | dose: 1.5 mg/kg/injection, schedule: Q04DX003 (iv), vehicle: saline 151 % of control | dose: 1.56 mg/kg/injection, schedule: Q04DX002 (ip), vehicle: water 200 % of control | dose: 1.62 mg/kg/injection, schedule: Q04DX003 (ip), vehicle: saline 247 % of control | dose: 1.8 mg/kg/injection, schedule: Q04DX003 (ip), vehicle: saline 201 % of control and 273 % of control | dose: 1.8 mg/kg/injection, schedule: Q04DX003 (ip), vehicle: water 210 % of control and 229 % of control | dose: 2.0 mg/kg/injection, schedule: Q01DX001 (ip), vehicle: acid diluted with saline 571 % of control | dose: 2.0 mg/kg/injection, schedule: Q01DX005 (ip), vehicle: saline 401 % of control | dose: 2.0 mg/kg/injection, schedule: Q01DX005 (iv), vehicle: saline 187 % of control | dose: 2.0 mg/kg/injection, schedule: Q01DX009 (ip), vehicle: water 250 % of control [middle of 4 runs] | dose: 2.0 mg/kg/injection, schedule: Q04DX003 (ip), vehicle: saline 183 % of control and 201 % of control | dose: 2.16 mg/kg/injection, schedule: Q01DX005 (ip), vehicle: saline 289 % of control | dose: 2.16 mg/kg/injection, schedule: Q04DX002 (ip), vehicle: water 267 % of control and 409 % of control | dose: 2.16 mg/kg/injection, schedule: Q04DX003 (ip), vehicle: acid diluted with saline 409 % of control | dose: 2.16 mg/kg/injection, schedule: Q04DX003 (ip), vehicle: saline 212 % of control and 420 % of control | dose: 2.2 mg/kg/injection, schedule: Q04DX003 (ip), vehicle: saline 294 % of control | dose: 2.4 mg/kg/injection, schedule: Q04DX002 (ip), vehicle: water 227 % of control and 233 % of control | dose: 2.5 mg/kg/injection, schedule: Q01DX005 (ip), vehicle: water 199 % of control and 259 % of control
